Among the data in PubChem BioAssay (NCI) are GI50 and TGI values, retold here.

Broadly, the GI50 is the concentration giving 50% growth inhibition. As a reminder, the TGI is the concentration at which net growth stops. A higher TGI goes with lower sensitivity of the cells.

This test has as its system NCI-H322M lung. Briefly: DTP human tumour cell line panel, 48 h.

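Protocol summary: plate cells (96-well), add compound at 5 concentrations, incubate 48 h, interpolate endpoints linearly. Abbreviation: GI50, concentration required for 50% inhibition of growth. TGI denotes the concentration required for complete inhibition of growth.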

In the case of `Cc1cc2ncc(-c3cc4ccccc4c(N4CCN(C)CC4)n3)nc2cc1C`, the GI50 is 3770 nM and the TGI is 26000 nM.
The corresponding values for `O=C(Nc1ccc(F)c(F)c1)c1cc(-c2ccc(F)cc2F)ccc1O` are 1560 nM and over 50000 nM.
The corresponding values for `C=C(C)[C@@H]1CC[C@]2(COP(=O)(OCC)OCC)CC[C@]3(C)[C@H](CC[C@@H]4[C@@]5(C)CCCNC(C)(C)[C@@H]5CC[C@]43C)[C@@H]12` are 1520 nM and 2890 nM.
The matching figures for `COc1cccc2c1C=CC1(O2)Oc2cccc(OC)c2C=C1C` (stereo not drawn): 1620 nM and over 100000 nM.
